Measured values published in PubChem BioAssay AID504332 (National Center for Advancing Translational Sciences (NCATS), 2011).
The whole screen tested about 350,000 compounds, of which about 31,000 (8.9%) were called active. Inconclusive results, whose numbers are uncertain, are shown with a selection of clear calls. The call rests on the fitted dose curve; in most records, active means well fitted inhibition curve with a large enough effect; inconclusive means small, poorly fitted or top-dose-only effect; inactive means no such curve, though single readings can be large or run the other way. Where the call is inconclusive, the potency comes from a doubtful curve fit.
Further: nearly all actives have a fitted effect of over 75% in size.
On the % scale 0 is the no-effect control and ±100 the full control effect; potency means the concentration at half of the fitted maximal effect; tags describe the fitted curve by direction and shape.

These molecules were tested against Histone-lysine N-methyltransferase EHMT2 (Homo sapiens) (UniProt Q96KQ7) (assay: qHTS Assay for Inhibitors of Histone Lysine Methyltransferase G9a). Settings: G9a H3K9 monomethylation, AlphaScreen, 2 h; activity, negative = inhibition: at 59 µM (top of the series) unless noted.
Chain of UniProt Q96KQ7 (Q96KQ7 whole entry, looked up): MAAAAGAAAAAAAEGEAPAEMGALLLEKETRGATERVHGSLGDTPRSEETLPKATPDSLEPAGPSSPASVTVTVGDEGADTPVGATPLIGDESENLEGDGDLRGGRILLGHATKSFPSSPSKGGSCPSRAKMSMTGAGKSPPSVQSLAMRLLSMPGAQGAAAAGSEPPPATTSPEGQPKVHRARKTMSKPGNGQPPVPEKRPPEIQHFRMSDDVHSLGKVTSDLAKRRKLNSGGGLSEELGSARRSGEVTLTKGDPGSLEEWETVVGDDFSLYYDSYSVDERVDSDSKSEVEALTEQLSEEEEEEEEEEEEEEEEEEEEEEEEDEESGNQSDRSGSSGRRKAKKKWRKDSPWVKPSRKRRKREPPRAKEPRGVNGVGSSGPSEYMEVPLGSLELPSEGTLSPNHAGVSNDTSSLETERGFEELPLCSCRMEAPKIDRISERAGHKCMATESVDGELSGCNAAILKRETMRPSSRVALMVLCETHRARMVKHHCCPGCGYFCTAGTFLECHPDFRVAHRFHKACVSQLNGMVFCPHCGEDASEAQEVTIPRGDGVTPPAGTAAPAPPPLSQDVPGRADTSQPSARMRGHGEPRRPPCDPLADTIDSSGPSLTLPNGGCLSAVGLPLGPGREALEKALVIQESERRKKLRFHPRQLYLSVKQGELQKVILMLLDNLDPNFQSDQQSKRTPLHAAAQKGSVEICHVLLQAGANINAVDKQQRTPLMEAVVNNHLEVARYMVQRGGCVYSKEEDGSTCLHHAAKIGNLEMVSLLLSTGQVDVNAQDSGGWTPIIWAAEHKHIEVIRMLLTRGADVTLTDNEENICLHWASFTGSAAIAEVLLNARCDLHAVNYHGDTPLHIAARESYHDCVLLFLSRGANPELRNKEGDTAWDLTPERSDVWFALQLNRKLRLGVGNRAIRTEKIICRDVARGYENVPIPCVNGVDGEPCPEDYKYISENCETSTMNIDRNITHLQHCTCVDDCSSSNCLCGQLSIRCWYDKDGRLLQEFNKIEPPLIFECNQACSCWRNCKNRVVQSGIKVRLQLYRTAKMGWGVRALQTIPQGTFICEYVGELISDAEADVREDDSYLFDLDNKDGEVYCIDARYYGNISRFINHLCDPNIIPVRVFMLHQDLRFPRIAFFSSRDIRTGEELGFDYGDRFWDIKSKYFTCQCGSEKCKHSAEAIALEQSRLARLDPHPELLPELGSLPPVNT
How it was run: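 Signal arises when biotinylated H3K9 peptide, once monomethylated, bridges streptavidin donor and antibody-captured acceptor beads. Enzyme at 20 nM was preincubated 15 min with test compounds; peptide 500 nM and SAM 20 uM then reacted for 2 h.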
In the case of S=c1nc2ccccc2c2nc(-c3ccccc3Br)[nH]n12, the activity, negative = inhibition is reported as inactive: 9.81% [at 0.501 µM]. COC(=O)c1sc(S(=O)(=O)NCCC(=O)O)c(C(=O)OC)c1C was tested, and the Potency was inconclusive: 89.1 µM [inhibitor, single point]. With N=C1/C(=C\c2ccc(SCc3ccccc3)o2)C(=O)N=C2SC=NN12 the Potency was active: 50.1 µM. O=C1c2ccccc2C(=O)C1c1ccccc1F was tested, and the Potency was inconclusive: 89.1 µM [inhibitor, single point]. With CC(=O)NNc1cc(N2CCOCC2)nc(N2CCOCC2)n1 the Potency was active: 44.7 µM. For CCOc1ccc(NC(=S)NC(=O)C2CCCC2)cc1, the Potency was inconclusive: 56.2 µM [inhibitor, single point]. COC(=O)c1cc(CNC(=O)CCCSc2ccccc2)ccc1OC was tested, and the Potency was inconclusive: 79.4 µM [inhibitor, single point]. For c1cc2c(cc1C1=Nn3c(nnc3C3CCCCC3)SC1)OCO2, the Potency was inconclusive: 89.1 µM [inhibitor, single point]. In the case of O=C(Cc1cccs1)Nc1ccc(S(=O)(=O)Nc2ncccn2)cc1, the Potency is reported as inconclusive: 22.4 µM [inhibitor, single point]. With COC(=O)c1c(C)nc2c(c(SC)nn2-c2ccccc2)c1N the Potency was inconclusive: 0.158 µM [inhibitor, full curve, poor fit]. For CCCOc1ccc([C@@H]2C3CN(C(=O)OCC)CC=C3C(C#N)=C(N)C2(C#N)C#N)cc1OC (some centres not stated), the activity, negative = inhibition was inconclusive: -88.7% [inhibitor]. In the case of O=S(=O)(Nc1ccc2c(c1)nc1n2CCN(Cc2ccccc2)C1)c1ccccc1, the Potency is reported as inconclusive: 28.2 µM [inhibitor, single point]. For O=c1oc(-c2ccccc2Br)nc2ccccc12, the Potency was inconclusive: 44.7 µM [inhibitor, partial curve, poor fit]. For COc1cccc(NS(=O)(=O)c2ccc3[nH]cc(C(=O)NC(C)c4ccccc4)c(=O)c3c2)c1 (configuration not stated), the “activity, negative = inhibition” value was inactive: -51.3%. In the case of O=C(NCCC1=CCCCC1)C(=O)NCC(c1ccco1)N1CCN(c2ccccc2F)CC1 (configuration not stated), the Potency is reported as inconclusive: 5.62 µM [inhibitor, single point]. With Cc1nc2c(-c3ccccc3)c(C)nn2c(SCC(N)=O)c1Cc1ccccc1 the “activity, negative = inhibition” value was inactive: 6.03%. In the case of CN(C)S(=O)(=O)c1ccc(C(=O)OCC(=O)NCc2ccco2)cc1, the Potency is reported as active: 50.1 µM. With Cc1ccc(OCc2n[nH]c(=S)n2-c2ccc(Cl)cc2)cc1 the Potency was active: 3.16 µM. With [O-]/C(=C(\C(=S)Nc1ccccc1F)[n+]1ccccc1)c1ccc(OC(F)F)cc1 the Potency was active: 50.1 µM. For NC(=O)c1ccc(NC(=O)CS(=O)(=O)c2cn(CC(=O)N3CCCCC3)c3ccccc23)cc1, the Potency was inconclusive: 56.2 µM [inhibitor, single point]. With CCCN(C(=O)c1ccco1)c1nnc(-c2ccncc2)s1 the Potency was inconclusive: 39.8 µM [inhibitor, single point]. With Cc1cc2oc(=O)cc(CSc3nc(N)cc(N)n3)c2cc1C the Potency was inconclusive: 17.8 µM [inhibitor, single point]. CC1(C)CC(=O)C2=C(C1)N1C(=C(C#N)C2c2ccc(Cl)cc2)N=C(N)c2ccccc21 (configuration not stated) was tested, and the Potency was inconclusive: 79.4 µM [inhibitor, single point]. COc1ccccc1CCNC(=O)CSc1nc(-c2ccco2)cc(C(F)(F)F)n1 was tested, and the “activity, negative = inhibition” value was inactive: -14.7% [at 102 µM]. COc1cc(CN2CCN(C(c3ccccc3)c3ccccc3)CC2)cc(OC)c1OC was tested, and the Potency was active: 28.2 µM. In the case of O=C(CNC(=O)c1cccc(S(=O)(=O)N2CCc3ccccc32)c1)Nc1ccc(F)c(F)c1F, the “activity, negative = inhibition” value is reported as inactive: -10.6% [at 102 µM]. With CCn1c(SCC(=O)Nc2cccc(C)c2)nc2c(c1=O)SC(C)C2 (configuration not stated) the Potency was active: 50.1 µM. O=[N+]([O-])c1ccc(C[n+]2ccc(Cc3ccccc3)cc2)cc1 was tested, and the Potency was active: 12.6 µM. CCOc1cccc2sc(N(CCCN(C)C)C(=O)c3ccc(S(=O)(=O)N(C)Cc4ccccc4)cc3)nc12 was tested, and the Potency was inconclusive: 89.1 µM [inhibitor, single point]. In the case of C#C[C@@]1(O)CCC2C3CCc4cc(O)ccc4C3CC[C@@]21C (some centres not stated), the activity, negative = inhibition is reported as inactive: -8.88% [at 2.33 µM]. With CCOc1cccc2sc(NC(=O)c3ccc(S(=O)(=O)N4CCCCC4C)cc3)nc12 (configuration not stated) the “activity, negative = inhibition” value was inactive: -22.9%. In the case of Cc1ccc(-c2csc3nc(-c4ccncc4)[nH]c(=O)c23)cc1, the activity, negative = inhibition is reported as inconclusive: -68.7% [inhibitor]. COc1ccc(S(=O)(=O)/N=C2\C=C(NS(=O)(=O)c3ccccc3)C(=O)c3ccccc32)cc1 was tested, and the Potency was active: 8.91 µM. For Cc1noc(C)c1S(=O)(=O)N1CCCC1C(=O)O (configuration not stated), the “activity, negative = inhibition” value was inactive: -5.65% [at 102 µM]. In the case of Cc1nc(Nc2ccccc2)sc1C, the Potency is reported as active: 12.6 µM. For COc1ccc(Br)cc1CN(C)CC(=O)NCc1ccc(F)cc1, the Potency was inconclusive: 79.4 µM [inhibitor, single point]. In the case of CC1Cc2cc(/C(O)=C3/C(=O)C(=O)N(CCN4CCOCC4)C3c3cccc(Cl)c3)ccc2O1 (configuration not stated), the activity, negative = inhibition is reported as inactive: -0.0589% [at 12.7 µM]. In the case of Nc1nc(Nc2cccc(F)c2)nc2ccccc12, the Potency is reported as active: 56.2 µM. O=C(Nc1cc(S(=O)(=O)N2CCOCC2)ccc1N1CCOCC1)c1ccc(S(=O)(=O)N2CCCCC2)cc1 was tested, and the “activity, negative = inhibition” value was inactive: 15.8% [at 102 µM]. CC1(C)CC(NNCCC#N)=CC(=[N+]2CCCC2)C1 was tested, and the Potency was active: 39.8 µM. COc1ccc(NC(=O)C(c2cc3c(cc2[N+](=O)[O-])OCO3)N(C)Cc2ccccc2)cc1 (configuration not stated) was tested, and the Potency was active: 79.4 µM. With COc1cc(C)c(CNc2cc(C)cc(C)c2)cc1C the Potency was inconclusive: 89.1 µM [inhibitor, single point]. For CN(C)/C=C/C(=O)c1ccc(Cl)c([N+](=O)[O-])c1, the Potency was inconclusive: 70.8 µM [inhibitor, single point]. Cc1cc(S(=O)(=O)N2CCOCC2)c(C)s1 was tested, and the Potency was inconclusive: 25.1 µM [inhibitor, single point]. O=C(Cn1cc(C(=O)c2ccco2)c2ccccc21)NC1CC1 was tested, and the “activity, negative = inhibition” value was inactive: 7.08% [at 102 µM]. With C/C(CC(=O)Nc1ccccc1Br)=N\NC(=O)C(=O)N1CCCC1 the activity, negative = inhibition was inconclusive: -72.3% [inhibitor]. With CCN1C(=S)N[C@@H](CCc2ccccc2)C(C(=O)OC)=C1C the “activity, negative = inhibition” value was inactive: -8.9% [at 102 µM]. For Cn1c(NCc2c(O)ccc3ccccc23)nc2ccccc21, the Potency was inconclusive: 31.6 µM [inhibitor, single point]. With CN(CC(=O)Nc1ccccc1Cl)C(=O)CSc1nnc(-c2ccco2)o1 the Potency was inconclusive: 44.7 µM [inhibitor, partial curve, poor fit]. In the case of CCc1nnc(NC(=O)C(=O)NCCOC(=O)c2ccccc2Cl)s1, the Potency is reported as inconclusive: 10 µM [inhibitor, partial curve, poor fit]. In the case of CCN(CC)CCNc1ncnc2c1[nH]c1ccc(OC)cc12, the Potency is reported as inconclusive: 3.98 µM [inhibitor, partial curve, poor fit]. O=C(O)CN1C(=O)C2C3C=CC(C3)C2C1=O (configuration not stated) was tested, and the Potency was inconclusive: 39.8 µM [inhibitor, partial curve, poor fit]. With Cc1ccccc1N=Cc1cccc(O)c1O the Potency was active: 7.94 µM. For COc1cc(-c2noc(C)c2/C=C/c2ccc(N)cc2)cc(OC)c1OC, the Potency was inconclusive: 79.4 µM [inhibitor, partial curve, poor fit]. In the case of Cc1ccc(NC(=O)Cc2cc(C(=O)O)c3ccccc3n2)c(C)c1, the “activity, negative = inhibition” value is reported as inactive: -0.471% [at 102 µM]. For CC(=O)Nc1ccc(S(=O)(=O)Nc2cccc(-c3cn4c(n3)SCC4)c2)cc1, the Potency was inconclusive: 70.8 µM [inhibitor, partial curve, poor fit]. CCCCOc1ccc(C(=O)Nc2cc(-c3cn4cccnc4n3)ccc2OC)cc1 was tested, and the “activity, negative = inhibition” value was inactive: 11.8%. CC(=O)Nc1cccc(NC(=S)Nc2ccc(F)c(Cl)c2)c1 was tested, and the Potency was inconclusive: 50.1 µM [inhibitor, partial curve]. For CCn1c(SCC(=O)Nc2cccc(O)c2)nc2c1c(=O)n(C)c(=O)n2C, the Potency was inconclusive: 12.6 µM [inhibitor, partial curve, poor fit]. With COc1cccc(NC2=C(C#N)C(=O)NC(c3cccc(OC)c3O)S2)c1 (configuration not stated) the Potency was active: 44.7 µM. In the case of c1cc(CSc2nnc(-c3ccc4c(c3)OCO4)o2)ccn1, the “activity, negative = inhibition” value is reported as inactive: 21.8%. For COc1ccc(NC(=O)NC(C)c2c(-n3cccc3)sc(C)c2C)cc1OC (configuration not stated), the Potency was inconclusive: 22.4 µM [inhibitor, single point]. For O=C(Oc1ccc(N(Cc2cccs2)C2=NS(=O)(=O)c3ccccc32)cc1)c1ccccc1F, the “activity, negative = inhibition” value was inactive: -45%. CCOC(=O)C1CCN(Cc2ccccn2)CC1 was tested, and the Potency was active: 1.78 µM. With CCOc1c(Cl)cc(CNc2ccc3[nH]c(=O)[nH]c3c2)cc1OC the Potency was active: 3.55 µM. CCC(C)(C)NC(=O)C(c1ccccn1)N(C(=O)c1csnn1)c1ccc(C)c(C)c1 (configuration not stated) was tested, and the “activity, negative = inhibition” value was inactive: -2.58% [at 102 µM]. With CCOc1ccc(C(=O)Nc2ccc(C(=O)N3CCOCC3)cc2)c(OCC)c1 the “activity, negative = inhibition” value was inactive: -0.458% [at 102 µM]. CNS(=O)(=O)c1cccc(C(=O)OCC(=O)c2cc(C)n(-c3ccc4c(c3)OCO4)c2C)c1 was tested, and the Potency was inconclusive: 79.4 µM [inhibitor, single point]. For O=C(O)CCn1c(C2CCCCC2)nc2ccccc21, the Potency was inconclusive: 89.1 µM [inhibitor, single point]. In the case of Cc1c(NC(=O)/C(C#N)=C/c2ccc(-c3ccccc3Cl)o2)c(=O)n(-c2ccccc2)n1C, the Potency is reported as inconclusive: 39.8 µM [inhibitor, single point]. In the case of O=C(Oc1cccnc1)c1ccc([N+](=O)[O-])cc1Cl, the Potency is reported as inconclusive: 89.1 µM [inhibitor, single point]. With CC(=O)N1N=C(c2cccc([N+](=O)[O-])c2)OC1c1cccc(Br)c1 (configuration not stated) the Potency was inconclusive: 25.1 µM [inhibitor, full curve].
